Results are given in words; binding and its absence hold for the method and conditions named. Binding seen in cells or lysates may run through a third protein. Sequences can lack the tags named with a protein.

For one molecule, binding results are on record in article PMC12167477, “Setdb1 and Atf7IP form a hetero-trimeric complex that blocks Setdb1 nuclear export” (The Journal of Biological Chemistry, 2025).

The target of assay [1] is T1, Flag-Atf7IP(836-1270) (human) (UniProt Q6VMQ6).
T1 sequence: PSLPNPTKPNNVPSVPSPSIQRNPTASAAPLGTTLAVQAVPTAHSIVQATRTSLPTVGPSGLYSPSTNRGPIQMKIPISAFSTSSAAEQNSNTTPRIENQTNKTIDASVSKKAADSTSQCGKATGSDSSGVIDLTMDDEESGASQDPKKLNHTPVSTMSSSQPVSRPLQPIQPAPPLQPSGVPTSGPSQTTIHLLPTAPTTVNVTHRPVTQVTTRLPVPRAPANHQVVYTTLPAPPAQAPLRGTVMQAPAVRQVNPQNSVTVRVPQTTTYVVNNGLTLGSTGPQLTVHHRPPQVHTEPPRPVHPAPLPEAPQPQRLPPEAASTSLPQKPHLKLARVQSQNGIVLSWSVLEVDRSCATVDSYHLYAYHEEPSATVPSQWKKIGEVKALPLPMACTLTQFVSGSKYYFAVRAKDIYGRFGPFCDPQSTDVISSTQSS
As to the kind of experiment: co-IP; HEK293 cells transiently co-transfected; lysis in 30 mM HEPES pH 7.9, 400 mM NaCl, 10% glycerol, 0.05% Tween-20, 2 mM BME, Benzonase; anti-DYKDDDDK magnetic beads, FLAG peptide elution, blots with anti-FLAG, anti-HA, anti-Myc.

Assay [2] deals with T2, Flag-Atf7IP(1-448) (human) (UniProt Q6VMQ6).
T2 sequence: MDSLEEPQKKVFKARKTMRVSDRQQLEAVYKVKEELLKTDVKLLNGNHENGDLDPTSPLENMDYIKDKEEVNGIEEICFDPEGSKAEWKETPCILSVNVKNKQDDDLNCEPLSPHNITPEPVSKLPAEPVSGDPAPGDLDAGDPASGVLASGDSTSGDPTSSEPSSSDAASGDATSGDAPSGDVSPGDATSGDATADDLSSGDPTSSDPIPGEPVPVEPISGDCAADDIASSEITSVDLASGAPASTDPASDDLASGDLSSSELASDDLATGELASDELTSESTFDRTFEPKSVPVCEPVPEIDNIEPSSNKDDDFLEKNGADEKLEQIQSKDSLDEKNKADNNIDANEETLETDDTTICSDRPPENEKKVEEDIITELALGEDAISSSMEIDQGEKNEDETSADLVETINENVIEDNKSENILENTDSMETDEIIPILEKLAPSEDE
The description is as above.

B1: full-length Atf7IP, FLAG- or Myc-tagged (protein, UniProt Q6VMQ6 1-1270)
chain: MDSLEEPQKKVFKARKTMRVSDRQQLEAVYKVKEELLKTDVKLLNGNHENGDLDPTSPLENMDYIKDKEEVNGIEEICFDPEGSKAEWKETPCILSVNVKNKQDDDLNCEPLSPHNITPEPVSKLPAEPVSGDPAPGDLDAGDPASGVLASGDSTSGDPTSSEPSSSDAASGDATSGDAPSGDVSPGDATSGDATADDLSSGDPTSSDPIPGEPVPVEPISGDCAADDIASSEITSVDLASGAPASTDPASDDLASGDLSSSELASDDLATGELASDELTSESTFDRTFEPKSVPVCEPVPEIDNIEPSSNKDDDFLEKNGADEKLEQIQSKDSLDEKNKADNNIDANEETLETDDTTICSDRPPENEKKVEEDIITELALGEDAISSSMEIDQGEKNEDETSADLVETINENVIEDNKSENILENTDSMETDEIIPILEKLAPSEDELTCFSKTSLLPIDETNPDLEEKMESSFGSPSKQESSESLPKEAFLVLSDEEDISGEKDESEVISQNETCSPAEVESNEKDNKPEEEEQVIHEDDERPSEKNEFSRRKRSKSEDMDNVQSKRRRYMEEEYEAEFQVKITAKGDINQKLQKVIQWLLEEKLCALQCAVFDKTLAELKTRVEKIECNKRHKTVLTELQAKIARLTKRFEAAKEDLKKRHEHPPNPPVSPGKTVNDVNSNNNMSYRNAGTVRQMLESKRNVSESAPPSFQTPVNTVSSTNLVTPPAVVSSQPKLQTPVTSGSLTATSVLPAPNTATVVATTQVPSGNPQPTISLQPLPVILHVPVAVSSQPQLLQSHPGTLVTNQPSGNVEFISVQSPPTVSGLTKNPVSLPSLPNPTKPNNVPSVPSPSIQRNPTASAAPLGTTLAVQAVPTAHSIVQATRTSLPTVGPSGLYSPSTNRGPIQMKIPISAFSTSSAAEQNSNTTPRIENQTNKTIDASVSKKAADSTSQCGKATGSDSSGVIDLTMDDEESGASQDPKKLNHTPVSTMSSSQPVSRPLQPIQPAPPLQPSGVPTSGPSQTTIHLLPTAPTTVNVTHRPVTQVTTRLPVPRAPANHQVVYTTLPAPPAQAPLRGTVMQAPAVRQVNPQNSVTVRVPQTTTYVVNNGLTLGSTGPQLTVHHRPPQVHTEPPRPVHPAPLPEAPQPQRLPPEAASTSLPQKPHLKLARVQSQNGIVLSWSVLEVDRSCATVDSYHLYAYHEEPSATVPSQWKKIGEVKALPLPMACTLTQFVSGSKYYFAVRAKDIYGRFGPFCDPQSTDVISSTQSS
For the molecule B1, the binding result in assay [1] and in assay [2] was “no binding” in each case.
